Measurements reported in paper PMC9911399, “Two distinct binding modes provide the RNA-binding protein RbFox with extraordinary sequence specificity”.
Positions count from the first letter of the chain named. Some of the results follow.

T1: RBFOX1 RRM RbFoxmut (Fox-RRM*) (Homo sapiens, UniProt Q9NWB1 109-208, R118D;E147R;N151S;E152T)
T1 sequence: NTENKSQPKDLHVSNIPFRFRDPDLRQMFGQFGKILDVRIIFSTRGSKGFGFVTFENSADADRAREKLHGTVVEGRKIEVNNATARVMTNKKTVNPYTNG

B1: ACAUAUC (DNA:RNA)
RNA: GGGAGACCGGAAUUCAGAUUGUCCACAUAUCUUAAAUCCCGUCGUAGCCACCA
DNA 1: CAATCTGAATTCCGGTCTCCC
DNA 2: TGGTGGCTACGACGGGATT
B2: CCCCUAG (DNA:RNA)
RNA: B1 RNA with A25C, A27C, U28C, A29U, U30A, C31G
DNA 1: CAATCTGAATTCCGGTCTCCC
DNA 2: TGGTGGCTACGACGGGATT
B3: GGAUUUU (DNA:RNA)
RNA: B1 RNA with A25G, C26G, A29U, C31U
DNA 1: CAATCTGAATTCCGGTCTCCC
DNA 2: TGGTGGCTACGACGGGATT
B4: UCUUAAA (DNA:RNA)
RNA: B1 RNA with A25U, A27U, U30A, C31A
DNA 1: CAATCTGAATTCCGGTCTCCC
DNA 2: TGGTGGCTACGACGGGATT
B5: AUUAUAG (DNA:RNA)
RNA: B1 RNA with C26U, A27U, U28A, A29U, U30A, C31G
DNA 1: CAATCTGAATTCCGGTCTCCC
DNA 2: TGGTGGCTACGACGGGATT
B6: ACAACAG (DNA:RNA)
RNA: B1 RNA with U28A, A29C, U30A, C31G
DNA 1: CAATCTGAATTCCGGTCTCCC
DNA 2: TGGTGGCTACGACGGGATT
B7: CCGCGUC (DNA:RNA)
RNA: B1 RNA with A25C, A27G, U28C, A29G
DNA 1: CAATCTGAATTCCGGTCTCCC
DNA 2: TGGTGGCTACGACGGGATT
B8: ACCAGAG (DNA:RNA)
RNA: B1 RNA with A27C, U28A, A29G, U30A, C31G
DNA 1: CAATCTGAATTCCGGTCTCCC
DNA 2: TGGTGGCTACGACGGGATT
B9: UGGGCGG (DNA:RNA)
RNA: GGGAGACCGGAAUUCAGAUUGUCCUGGGCGGUUAAAUCCCGUCGUAGCCACCA
DNA 1: CAATCTGAATTCCGGTCTCCC
DNA 2: TGGTGGCTACGACGGGATT
B10: GGAGUUU (DNA:RNA)
RNA: B1 RNA with A25G, C26G, U28G, A29U, C31U
DNA 1: CAATCTGAATTCCGGTCTCCC
DNA 2: TGGTGGCTACGACGGGATT
B11: CGUAUUG (DNA:RNA)
RNA: B9 RNA with U25C, G27U, G28A, C29U, G30U
DNA 1: CAATCTGAATTCCGGTCTCCC
DNA 2: TGGTGGCTACGACGGGATT
B12: AGCUGGA (DNA:RNA)
RNA: B1 RNA with C26G, A27C, A29G, U30G, C31A
DNA 1: CAATCTGAATTCCGGTCTCCC
DNA 2: TGGTGGCTACGACGGGATT
B13: AGACGUC (DNA:RNA)
RNA: B1 RNA with C26G, U28C, A29G
DNA 1: CAATCTGAATTCCGGTCTCCC
DNA 2: TGGTGGCTACGACGGGATT
B14: UCGAACU (DNA:RNA)
RNA: B1 RNA with A25U, A27G, U28A, U30C, C31U
DNA 1: CAATCTGAATTCCGGTCTCCC
DNA 2: TGGTGGCTACGACGGGATT
B15: UUGGAUG (DNA:RNA)
RNA: B9 RNA with G26U, C29A, G30U
DNA 1: CAATCTGAATTCCGGTCTCCC
DNA 2: TGGTGGCTACGACGGGATT
B16: CAACGUA (DNA:RNA)
RNA: B1 RNA with A25C, C26A, U28C, A29G, C31A
DNA 1: CAATCTGAATTCCGGTCTCCC
DNA 2: TGGTGGCTACGACGGGATT
B17: GCAGAUA (DNA:RNA)
RNA: B1 RNA with A25G, U28G, C31A
DNA 1: CAATCTGAATTCCGGTCTCCC
DNA 2: TGGTGGCTACGACGGGATT
B18: UCCGGUG (DNA:RNA)
RNA: B9 RNA with G26C, G27C, C29G, G30U
DNA 1: CAATCTGAATTCCGGTCTCCC
DNA 2: TGGTGGCTACGACGGGATT
B19: UUUAGAC (DNA:RNA)
RNA: B1 RNA with A25U, C26U, A27U, U28A, A29G, U30A
DNA 1: CAATCTGAATTCCGGTCTCCC
DNA 2: TGGTGGCTACGACGGGATT
B20: GCUACUG (DNA:RNA)
RNA: B1 RNA with A25G, A27U, U28A, A29C, C31G
DNA 1: CAATCTGAATTCCGGTCTCCC
DNA 2: TGGTGGCTACGACGGGATT

Molecular target: T1, RBFOX1 RRM RbFoxmut (Fox-RRM*)
Assay: EMSA; HiTS-Eq, 1 nM pool, 10 min; buffer printed only for the single-RNA assays: 10 mM Tris pH 7.5, 150 mM NaCl, 3.4 mM EDTA, 0.001% NP-40, 30 C
Conditions: tags: His6 N-terminal (pET28a); label: 5' 32P
Method in brief: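 Purified RbFox RRM, wild type or mutant, was incubated for 10 min in 50 µL with 1 nM of a 5′-radiolabelled RNA pool carrying 7 randomized nucleotides, whose flanks were annealed to DNA oligonucleotides, over a series of increasing protein concentrations. Unbound RNA was resolved on 8% native PAGE, cut out, reverse-transcribed, barcoded by PCR and sequenced on an Illumina HiSeq 2500. Relative association constants were derived from changes in read counts for each RNA species versus the control reaction and normalised to the cognate motif.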

**Q.** How did the binding signal turn out when B1 was run?
**A.** 0.0991 KA relative to UGCAUGU

**Q.** For B2, which binding signal is on record?
**A.** 0.11 KA relative to UGCAUGU

**Q.** How did the binding signal turn out when B3 was run?
**A.** 0.0826 KA relative to UGCAUGU

**Q.** For B4, which binding signal is on record?
**A.** 0.0977 KA relative to UGCAUGU

**Q.** For B5, which binding signal is on record?
**A.** 0.154 KA relative to UGCAUGU

**Q.** B6 was tested. Which binding signal did it give?
**A.** 0.0867 KA relative to UGCAUGU

**Q.** With B7 as the binder, how does the binding signal read?
**A.** 0.121 KA relative to UGCAUGU

**Q.** Which binding signal does the source give for B8 here?
**A.** 0.145 KA relative to UGCAUGU

**Q.** B9 was tested. Which binding signal did it give?
**A.** 0.131 KA relative to UGCAUGU

**Q.** B10 was tested. Which binding signal did it give?
**A.** 0.0946 KA relative to UGCAUGU

**Q.** How did the binding signal turn out when B11 was run?
**A.** 0.252 KA relative to UGCAUGU

**Q.** Which binding signal does the source give for B12 here?
**A.** 0.0719 KA relative to UGCAUGU

**Q.** Which binding signal does the source give for B13 here?
**A.** 0.0685 KA relative to UGCAUGU

**Q.** How did the binding signal turn out when B14 was run?
**A.** 0.0723 KA relative to UGCAUGU

**Q.** How did the binding signal turn out when B15 was run?
**A.** 0.61 KA relative to UGCAUGU

**Q.** For B16, which binding signal is on record?
**A.** 0.123 KA relative to UGCAUGU

**Q.** B17 was tested. Which binding signal did it give?
**A.** 0.116 KA relative to UGCAUGU

**Q.** Which binding signal does the source give for B18 here?
**A.** 0.0892 KA relative to UGCAUGU

**Q.** Which binding signal does the source give for B19 here?
**A.** 0.0679 KA relative to UGCAUGU

**Q.** B20 was tested. Which binding signal did it give?
**A.** 0.0876 KA relative to UGCAUGU
